According to US5589568A (priority 1994, dated 1996):
Read-outs that look alike come from different tables or passages of the source. Part of at least one peptide drawing is inferred or uncertain, most often the ends. Where no end group is shown, it is not given here.

Tests used:
Go = molecular target: T1, Go (Bos taurus, UniProt P08239); experiment: steady state GTPase activity of Go in phospholipid vesicles; assay type: biochemical, bovine; conditions: Table IV
T1 construct: proteins were extracted from bovine cerebral cortical membranes; from tissue; host or cells: bovine brain (cerebral cortical membranes)

Gi [1] = experiment: steady state GTPase activity of Gi in phospholipid vesicles; assay type: biochemical, rabbit; conditions: for G1 ef. (apparent efficacy, maximum turnover number of GTPase activity) / EC50: Table IV; for EC50: read-out: G1 af. (apparent affinity, estimated by EC50 of GTPase activity); for change of the selectivity of mastoparan between Gi and Go: initial screen of modified mastoparan congeners, Gi versus Go
Gs = Gs (Homo sapiens, UniProt P63092); experiment: steady state GTPase activity of Gs; assay type: biochemical; conditions: Table IV
In short: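 Steady-state GTP hydrolysis by Gs was run in buffer without detergent, with 1.1 mM MgSO4 and the specified nucleotide, and free Mg^2+ set with EDTA buffers where needed. Activity is expressed as molar turnover number. Apparent affinity and efficacy were estimated from the EC50 and the maximal turnover number of GTPase activity.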

[2] = circular dichroism, fractional helical content; assay type: physicochemical; conditions: 20 μM peptide, pH 7.5, 25° C.; for % α Helix - PC: absence of 1 mM phospholipid; for % α Helix + PC: presence of 1 mM phospholipid
Method: CD spectra of peptides were measured using an Aviv model 60DS spectrometer at 25° C. in 1-mm pathlength cells. Spectra were scanned at 1 nm intervals for 3 s, and three scans were averaged. Peptides were dissolved at 20 μM in 5 mM Tris-Cl, pH 7.5, in the presence or absence of sonicated 1 mM 1-palmitoyl,2-oleoylphosphatidylcholine. Fractional helical content for each peptide was calculated according to the assumption that, for 100% helix and 14 peptide bonds, θ222 =36,000 (1-2.6/14).
Fractional helical contents of some of the peptides

[3] = test system: muscarinic cholinergic receptor; assay type: binding, porcine; conditions: 30 μM peptide
Gi [4] = experiment: release of [α-32P]GDP from Gi (GDP exchange); assay type: biochemical, rabbit
Method: FIG. 1. Stimulation of GDP/GTP exchange by analogs of MP. The release of [α-^32 P]GDP from Gi was measured at 30° C. in the presence of the concentrations of several different MP analogs whose structures are listed in Table I: O, Mas7; Δ, Mas8; .tangle-solidup.Mas9; .quadrature., Mas19; .oval-solid., MP; .box-solid., MP-X; .gradient., MAS14; .tangle-soliddn., Mas6. First order dissociation rate constants (kdiss) were determined from duplicate four-point time courses as described under "Experimental Procedures."
Purification of αo and βγ was completed by chromatography on DEAE-Sephacel that was eluted with a gradient of 0-250 mM NaCl in the presence of 0.6% Lubrol and AMF. AMF was removed by chromatography on hydroxyapatite and Sephadex G-25 as described by Sternweis, et al., 1981, incorporated herein by reference. Gi was purified as the αβγ trimer from rabbit liver as reported by Bokoch, et al., 1984, incorporated herein by reference. The Gi used in this study could be recognized on a Western blot by anti-Gi -1 and anti-Gi -3 antibodies but not by anti-Gi -2 antibody, as documented by Mumby, et al., 1983, incorporated herein by reference. Purified recombinant αi,1 was synthesized in E. coli prepared to the specifications of Linder, incorporated herein by reference. During purification, G protein α subunits were assayed by [^35 S] GTPγ S binding according to the method of Higashijima, 1987, incorporated herein by reference). By subunits were assayed according to their ability to deactivate Gs, as detailed by Northup, 1983, incorporated herein by reference.
G proteins were reconstituted into phospholipid vesicles composed of dioleoyl-PC/bovine brain PS/1-palmitoyl,2-oleoyl-PE (3:4:3) as reported previously by Higashijima et al., 1988, incorporated herein by reference.
To measure the MP-catalyzed dissociation of [α-^32 P]GDP or [^35 S]-GTPγS, labeled nucleotide was first bound to G protein (approximately […] in 50 μl) by incubation of the Lubrol-solubilized G protein with a molar excess of nucleotide in assay buffer that contained 10 mM MgSO4 and 0.1% Lubrol. Incubation was for 20 min at 20° C. (for Go) or for 30 min at 30° C. (for Gi), In the case of [α-^32 P]GDP, EDTA was then added to 12 mM. Liganded G protein was reconstituted by mixing it with 10 μg of dioleoyl-PC/bovine brain PS/1-palmitoyl,2-oleoyl-PE (4:3:3) in 50 μl of 50 mM sodium Hepes (pH 8.0), 1 mM dithiothreitol, 0.1% Lubrol 12A9 plus either 12 mM EDTA and 10 mM MgSO4 (for [α-^32 P]GDP) or 1 mM EDTA and 1.1 mM MgSo4 (for [^35 S]GTPγ S) and chromatographing the mixture on a 3-ml column of Ultrogel AcA34 in 50 mM sodium Hepes (pH 8.0), 1 mM EDTA, 1 mM dithiothreitol. The gel filtration during reconstitution removes unbound nucleotide. Dissociation was initiated at 30° C. for Gi or 20° C. for Go by the addition of G protein-containing vesicles to assay medium that contained 1 μM unlabeled GDP, GTP, or GTPγ S and free Mg^2+ at 0.1 mM or other concentrations as shown in the figures. Dissociation was terminated by 5-fold dilution at 0° C. into buffer that contained 0.1% Lubrol and, in the case of GDP, AMF to stabilize binding. Bound nucleotide was determined by binding to nitrocellulose filters as described (Ferguson, 1986), and incorporated herein by reference. […] Data were analyzed using a nonlinear least squares fitting program.

Chain of Gs (P63092 whole entry): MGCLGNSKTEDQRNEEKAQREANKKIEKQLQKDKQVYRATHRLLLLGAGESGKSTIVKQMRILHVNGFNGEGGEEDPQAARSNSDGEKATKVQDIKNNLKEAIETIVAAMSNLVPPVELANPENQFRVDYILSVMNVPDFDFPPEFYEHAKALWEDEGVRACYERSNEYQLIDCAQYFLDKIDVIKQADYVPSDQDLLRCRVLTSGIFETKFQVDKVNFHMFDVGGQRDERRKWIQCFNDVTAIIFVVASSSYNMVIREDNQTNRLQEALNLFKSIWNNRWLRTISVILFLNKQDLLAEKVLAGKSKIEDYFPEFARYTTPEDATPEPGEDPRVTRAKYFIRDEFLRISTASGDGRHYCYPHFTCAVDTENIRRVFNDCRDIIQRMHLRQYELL
T1 sequence (P08239 2-354 limits assumed): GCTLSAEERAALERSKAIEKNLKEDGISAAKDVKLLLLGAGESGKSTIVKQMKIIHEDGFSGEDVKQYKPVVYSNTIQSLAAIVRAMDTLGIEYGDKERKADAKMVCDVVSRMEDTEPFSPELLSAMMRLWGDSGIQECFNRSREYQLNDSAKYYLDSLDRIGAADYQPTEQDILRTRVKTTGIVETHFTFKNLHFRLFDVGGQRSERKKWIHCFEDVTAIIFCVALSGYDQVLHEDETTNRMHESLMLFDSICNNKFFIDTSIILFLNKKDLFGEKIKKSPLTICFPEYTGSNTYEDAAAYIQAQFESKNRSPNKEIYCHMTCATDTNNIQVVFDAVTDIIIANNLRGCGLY
T1 sequence (P62871 2-340 partner limits assumed): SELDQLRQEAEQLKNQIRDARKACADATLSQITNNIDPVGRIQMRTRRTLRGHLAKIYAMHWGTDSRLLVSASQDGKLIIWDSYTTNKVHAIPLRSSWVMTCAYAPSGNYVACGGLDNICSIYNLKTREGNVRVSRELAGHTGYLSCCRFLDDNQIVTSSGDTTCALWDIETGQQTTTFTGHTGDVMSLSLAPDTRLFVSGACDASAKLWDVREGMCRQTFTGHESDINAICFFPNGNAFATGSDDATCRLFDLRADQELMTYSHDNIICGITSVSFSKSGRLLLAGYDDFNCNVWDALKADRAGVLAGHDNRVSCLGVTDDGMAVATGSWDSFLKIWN
T1 sequence (P63212 2-68 partner limits assumed): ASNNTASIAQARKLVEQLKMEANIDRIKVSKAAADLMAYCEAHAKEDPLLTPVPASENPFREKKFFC

Row | Substance | Goo ef. (apparent efficacy, maximum turnover number of GTPase activity) (Go) | G1 ef. (apparent efficacy, maximum turnover number of GTPase activity) (Gi [1]) | EC50 (Gi [1]) [µM] | Gs ef. (apparent efficacy, maximum turnover number of GTPase activity) (Gs) | % α Helix - PC [2] [%] | % α Helix + PC [2] [%] | change of the selectivity of mastoparan between Gi and Go (Gi [1]) | effect on the receptor's affinity for acetylcholine [3] | Hill coefficient for stimulation of GDP exchange (Gi [4]; 0 μg/ml BAC, 4 nM Gi, 30° C., 0.1 mM free Mg2+) | Hill coefficient for stimulation of GDP exchange (Gi [4]; 0.1 μg/ml BAC) | Hill coefficient for stimulation of GDP exchange (Gi [4]; 0.3 μg/ml BAC) | Hill coefficient for stimulation of GDP exchange (Gi [4]; 1 μg/ml BAC) | Hill coefficient for stimulation of GDP exchange (Gi [4]; 3 μg/ml BAC) | Hill coefficient for stimulation of GDP exchange (Gi [4]; 10 μg/ml BAC) | EC50, fold lower than that of MP (Gi [4]; Gi) [fold] | Maximal stimulation compared with MP (Gi [4]; Gi) | G1 ef. (apparent efficacy, maximum turnover number of GTPase activity) (Gi [1]; listed as ER29) | EC50 (Gi [1]; listed as ER29) [µM]
1 | INLAALAALAKKLL-NH2 [Mas19] | E (Excellent (E): 30-10 fold) | E (Excellent (E): 30-10 fold) | 3 to 10 | F (Fair (F): 2-5 fold) | 37 | 73 | – | – | – | – | – | – | – | – | – | – | – | –
2 | INLKAKAALAKKLL-NH2 [Mas17] | F (Fair (F): 2-5 fold) | P (Poor (P): less than 2 fold) | > 100 | F (Fair (F): 2-5 fold) | 15 | 31 | less than 5 fold | had no effect | – | – | – | – | – | – | – | – | – | –
3 | INLKALAALAAKLL-NH2 [Mas9] | E (Excellent (E): 30-10 fold) | E (Excellent (E): 30-10 fold) | 3 to 10 | F (Fair (F): 2-5 fold) | 34 | 67 | – | – | – | – | – | – | – | – | – | – | – | –
4 | INLKALAALAKALL-NH2 [MAS07] | S (Super (S): more than 30-fold) | S (Super (S): more than 30-fold) | 3 to 10 | F (Fair (F): 2-5 fold) | 26 | 69 | – | decreased the receptor's affinity for acetylcholine | 2.9±0.8 | 3.1±0.7 | 3.3±0.7 | 2.6±0.9 | 2.1±0.4 | 2.2±0.4 | 5 | twice as great as stimulation by MP | – | –
5 | INLKALAALAKRLL-NH2 [MAS08] | E (Excellent (E): 30-10 fold) | E (Excellent (E): 30-10 fold) | 3 to 10 | F (Fair (F): 2-5 fold) | 28 | 79 | – | – | – | – | – | – | – | – | – | – | – | –
6 | INLKALAALKKKLL-NH2 [MAS11] | G (Good (G): 5-10 fold) | F (Fair (F): 2-5 fold) | 3 to 10 | F (Fair (F): 2-5 fold) | 20 | 34 | less than 5 fold | – | – | – | – | – | – | – | – | – | G (Good (G): 5-10 fold) | 10 to 30
7 | INLKALAKLAKKLL-NH2 [MAS14] | E (Excellent (E): 30-10 fold) | G (Good (G): 5-10 fold) | 3 to 10 | F (Fair (F): 2-5 fold) | 16 | 64 | – | – | – | – | – | – | – | – | – | – | – | –
